Data published in patent US4889860A (Nova Pharmaceutical Corporation, priority 1987, dated 1989).
Entries after “also recorded” stand apart in the source; their conditions may differ. At least one compound was matched to its structure with a doubt left. Some entries repeat one wording, which the source may state once for all of them.

Experiments:
mu-type opioid receptor [1] = target: T1, mu-type opioid receptor (Rattus norvegicus, UniProt P33535); assay: reversibility of inhibition of [^3 H]DAGO binding after pretreatment and washing of rat forebrain membranes; details: for specific [3H]DAGO binding after drug pretreatment and washes: 10^-8 M drug, 30 min, 37°, 0-3 washes; for mode of interaction with opiate receptors in vitro: 10^-8 M, [3H]DAGO and [3H]DADLE, FIGS. 7-10
T1 construct: using rat forebrain membranes; from tissue; host or cells: rat forebrain membranes
T1 sequence (P33535 whole entry): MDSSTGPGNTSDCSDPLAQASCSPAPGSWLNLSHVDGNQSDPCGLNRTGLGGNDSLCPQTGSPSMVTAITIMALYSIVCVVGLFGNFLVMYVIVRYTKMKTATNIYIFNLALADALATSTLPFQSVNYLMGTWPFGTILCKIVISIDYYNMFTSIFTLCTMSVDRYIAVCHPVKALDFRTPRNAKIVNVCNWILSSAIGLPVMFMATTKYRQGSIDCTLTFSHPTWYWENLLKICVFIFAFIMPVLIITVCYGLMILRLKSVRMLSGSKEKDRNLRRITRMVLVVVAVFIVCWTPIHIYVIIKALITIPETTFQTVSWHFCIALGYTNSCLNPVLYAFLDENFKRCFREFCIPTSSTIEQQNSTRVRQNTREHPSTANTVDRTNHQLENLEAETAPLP

[2] = target: T2, delta-type opioid receptor (Rattus norvegicus, UniProt P33533); assay: reversibility of inhibition of [^3 H]DADLE binding after pretreatment and washing of rat forebrain membranes; design: using rat forebrain membranes; from tissue; host or cells: rat forebrain membranes; details: 10^-8 M drug, 30 min, 37°, 0-3 washes
T2 sequence (P33533 whole entry): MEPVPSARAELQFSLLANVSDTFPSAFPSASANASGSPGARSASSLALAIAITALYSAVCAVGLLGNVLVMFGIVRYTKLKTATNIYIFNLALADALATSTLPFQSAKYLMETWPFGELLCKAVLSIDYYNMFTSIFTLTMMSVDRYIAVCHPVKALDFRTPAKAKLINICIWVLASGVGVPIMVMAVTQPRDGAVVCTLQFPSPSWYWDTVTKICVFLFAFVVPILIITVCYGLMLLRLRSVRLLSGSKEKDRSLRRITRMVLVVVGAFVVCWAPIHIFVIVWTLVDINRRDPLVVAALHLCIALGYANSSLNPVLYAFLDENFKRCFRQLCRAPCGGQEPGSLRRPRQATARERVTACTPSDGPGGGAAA

[3] = target: T2, delta-type opioid receptor; assay: inhibition of specific [^3 H] DADLE binding to rat forebrain membranes; details: for mean Hill coefficient, [^3 H] DADLE binding: Tables 1 and 2, numbers in parentheses; for fold more potent at delta receptor: than Naltrexone
Method: (§1) The interaction of some of the novel compounds with mu and delta-type opioid receptors present in brain membranes was examined in vitro. […] DAGO (mu-type receptor) or [^3 H] DADLE (delta-type receptor) was determined using rat forebrain membranes. Computer assisted analysis (EBDA) was used to determine apparent Ki values for the various compounds.
(§2) Values represent the MEAN±S.E.M. of the Ki(nM) for each compound to inhibit specific binding of the indicated ligand to rat brain membranes. The values are from two-five separate experiments and were calculated according to the method of Cheng and Prusoff [Biochem. Pharmacol. 1973, 22, 3099-3108] together with the EBDA Program. Numbers in parentheses are the mean Hill coefficients for each compound to inhibit ligand binding.
as §2, with “two.div.seven” for “two-five”, “Prusoff” for “Prusoff [Biochem. Pharmacol. 1973, 22, 3099-3108]”, “program.” for “Program.”, “binding. N.D.=not determined” for “binding.”
(§3) The interaction of some of the novel compounds with mu, delta and kappa - type opioid receptors present in brain membranes was examined in vitro. […] DAGO (mu-type receptor), or [^3 H] DADLE (Delta-type receptor) using rat forebrain membranes and [^3 H] EKC (kappa-type receptor) using guiniea pig cerebellum membrane was determined. Computer assisted analysis (EBDA) was used to determine apparent Ki values for the various compounds.
(§4) The values represent the MEAN±S.E.M. of the Ki(nM) for each compound to inhibit specific binding of the indicated ligand. Each value represents the mean of three individual experiments performed on separate occasions.

mu-type opioid receptor [4] = target: T1, mu-type opioid receptor; assay: inhibition of specific [^3 H] DAGO binding to rat forebrain membranes; details: for mean Hill coefficient, [^3 H] DAGO binding: Tables 1 and 2, numbers in parentheses; for pattern of displacement of [3H] opiate binding: [^3 H]DAGO or [3H]DADLE, FIGS. 1-6
Method: as §1, §2
as §2, with “two.div.seven” for “two-five”, “Prusoff” for “Prusoff [Biochem. Pharmacol. 1973, 22, 3099-3108]”, “program.” for “Program.”, “binding. N.D.=not determined” for “binding.”
as §3, §4

tail flick response = assay: radiant heat tail flick analgesia in rats; details: rat, in vivo, sc
Method: The analgesic properties of the compounds prepared in accordance with Examples III and IV were evaluated in rats using the radiant heat and tail flick paradigm. […] Flick latencies in FIGS. 11-13 were determined at 30 minute intervals through 3.5 h and the data was expressed as a percentage of the maximum possible effect (% MPE). A 15 sec. cut-off latency was used to minimize tissue damage. The values shown are the mean values for 6 rats.
A 15 sec. cut-off latency was used to prevent tissue damage.
The analgesic properties of compounds XXII and XXIII were evaluated in rats using the writhing assay and tail flick paradigm. […] The writhing assay which uses a chemical stimulus to produce pain, is believed to be more sensitive to kappa agonist activity than other measures of analgesia which uses a heat stimulus (Dykstra, L.A. Behavioral Pharmacology: The Current Status, N.Y.: Allan R. Liss. Inc. 1985).

[5] = system: morphine-induced analgesia; assay: antagonism of morphine-induced analgesia (tail flick) in rats; type: in vivo, rat; details: for antagonism of morphine-induced analgesia: I.P., 14 μmol/kg morphine S.C., 40 min
[6] = water intake in 24 hr food-deprived rats; type: in vivo, rat; details: S.C.
Method: (§5) Rats were given water and powdered food ad lib for 8 days until food intake had stabilized, and body weight and food and water intakes were recorded at the same time every day. Animals were assigned to treatment groups matched on the basis of their 24 hr food consumption on the last baseline day, and rats were food deprived for 24 hr immediately before injection of the test compound. […] The compound of Example XII was injected S.C. at doses of 1.15, 2.31, 11.55 and 23.09 μmol/kg, in a volume of 4 ml/kg of 0.3% acetic acid. Controls were injected with the vehicle solutions in the appropriate volumes. Food and water intakes were measured at 1, 3 and 24 hr after treatment. Data for each measure and time point were analyzed by one-way analysis of variance (ANOVA), and post-hoc comparisons were performed using Dunnett's test in order to compare the control mean to each of the treatment means.
(§6) Rats were given water and powdered food for 8 days, and following this,
(§7) Testing was performed as described above, and baseline measurements were recorded for 7 days. […] The compound of Example XII was injected at doses of 11.55, 23.09, 46.19 and 92.38 μmol/kg by suspension in a solution of 1:1 DMSO:water in a volume of 3 ml/kg. Food and water intakes were recorded at 1, 2, 4 and 6 h following treatment.
See Table 3 for experimental details, except that baseline measurements

[7] = food intake in 24 hr food-deprived rats; type: in vivo, rat
Method: as §5, §6, §7
See Table 3 for experimental details, except that baseline measures were […]

[8] = system: oxymorphonazine (OMZ)-induced analgesia; assay: antagonism of oxymorphonazine (OMZ)-induced analgesia (tail flick) in rats; type: in vivo, rat
Method: The compound of Example XII was evaluated for its potency and duration in the antagonism of oxymorphonazine (OMZ)-induced analgesia. […] Data represent the mean SEM of 4-5 animals per group.
(Cowan A. Trendsin Pharmacology Science, 7:69-72, 1986) With this test the intracerebroventricular administration of bombesin produces a characteristic scratching response.

| Compound | specific [3H]DAGO binding after drug pretreatment and washes (mu-type opioid receptor [1]) | specific [3H]DADLE binding after drug pretreatment and washes [2] | mean Hill coefficient, [^3 H] DADLE binding [3] | mean Hill coefficient, [^3 H] DAGO binding (mu-type opioid receptor [4]) | pattern of displacement of [3H] opiate binding (mu-type opioid receptor [4]) | other results |
| --- | --- | --- | --- | --- | --- | --- |
| CON=C1CC[C@@]2(O)[C@H]3Cc4ccc(O)c5c4[C@@]2(CCN3C)[C@H]1O5 [Example II, 6-Methyloximino-17-methyl-4,5 α-epoxy-3, 14-dihydroxymorphinan] | complete specific binding being restored after 2-3 washes | complete specific binding being restored after 2-3 washes | 0.56 | 0.91 | displaced [3H] opiate binding as expected | – |
| CN1CC[C@]23c4c5ccc(O)c4O[C@H]2C(=NOCc2ccccc2)CC[C@@]3(O)[C@H]1C5 [Example III, 6-Benzyloximino-17-methyl-4,5 α-epoxy-3, 14-dihydroxymorphinan] | – | – | 0.70 | 1.06 | displaced [3H] opiate binding as expected | analgesic potency relative to morphine (tail flick response): 4.8 fold; duration of analgesic effect versus morphine (tail flick response): neither compound, at doses at least as high as 40-times the ED50, produced longer lasting analgesic effects |
| CN1CC[C@]23c4c5ccc(O)c4O[C@H]2C(=NOc2ccccc2)CC[C@@]3(O)[C@H]1C5 [Example IV, 6-Phenyloximino-17-methyl-4,5 α-epoxy-3, 14-dihydroxymorphinan] | markedly decreased even after 3 washes | markedly decreased even after 3 washes | 0.72 | 0.74 | appeared to continue to inhibit a percentage of ligand binding at very low drug concentrations | mode of interaction with opiate receptors in vitro (mu-type opioid receptor [1]): interact with opiate receptors in vitro in a pseudoirreversible fashion; analgesic potency relative to morphine (tail flick response): 17.5 fold; duration of analgesic effect versus morphine (tail flick response): neither compound, at doses at least as high as 40-times the ED50, produced longer lasting analgesic effects |
| CON=C1CC[C@@]2(O)[C@H]3Cc4ccc(O)c5c4[C@@]2(CCN3CC2CC2)[C@H]1O5 [Example X, 6-Methyloximino-17-cyclopropylmethyl-4,5 α-epoxy-3, 14-dihydroxymorphinan] | complete specific binding being restored after 2-3 washes | complete specific binding being restored after 2-3 washes | 0.72 | 0.97 | displaced [3H] opiate binding as expected | – |
| Oc1ccc2c3c1O[C@H]1C(=NOCc4ccccc4)CC[C@@]4(O)[C@@H](C2)N(CC2CC2)CC[C@]314 [Example XI, 6-Benzyloximino-17-cyclopropylmethyl-4, 5 α-epoxy-3, 14-dihydroxymorphinan] | – | – | 0.85 | 0.97 | appeared to continue to inhibit a percentage of ligand binding at very low drug concentrations | antagonism of morphine-induced analgesia [5]: both compounds were able to antagonize the analgesia produced by morphine |
| Oc1ccc2c3c1O[C@H]1C(=NOc4ccccc4)CC[C@@]4(O)[C@@H](C2)N(CC2CC2)CC[C@]314 [Example XII, 6-Phenyloximino-17-cyclopropylmethyl-4,5 α-epoxy-3, 14-dihydroxymorphinan] | markedly decreased even after 3 washes | markedly decreased even after 3 washes | 0.73 | 0.61 | appeared to continue to inhibit a percentage of ligand binding at very low drug concentrations | mode of interaction with opiate receptors in vitro (mu-type opioid receptor [1]): interact with opiate receptors in vitro in a pseudoirreversible fashion; effect on water intake ([6]; 1 and 3 hr, lower dose experiment (FIGS. 24, 25)): No significant effects were observed; also recorded: negligible effects on water intake; effect on water intake ([6]; higher dose time course experiment, 0-6 hr): The only effect noted for the compound of Example XII occurred at 0-2 hr; antagonism of morphine-induced analgesia [5]: both compounds were able to antagonize the analgesia produced by morphine; antagonism of morphine-induced analgesia, oral ([5]; oral, FIG. 21): able to antagonize the analgesia produced by morphine; relative potency in antagonism, oral ([5]; oral, versus naltrexone): less potent than naltrexone; effect on feeding ([7]; S.C., 1, 3 and 24 hr, lower dose experiment (FIGS. 22, 23)): at 11.55 and 23.09 μmol/kg significantly inhibited feeding at 1 hr following administration; also recorded: possesses anorectic activity for 1 hr after administration; effect on feeding ([7]; S.C., higher dose time course experiment, 0-6 hr): significantly decreased feeding from 2 to 6 hr following administration and the two lower doses decreased feeding up to 1 hr following administration; food intake in 4-6 hr interval ([7]; food intake/2 hr interval, FIGS. 26 and 27): feeding is still suppressed in animals treated with all doses examined; also recorded: did not "rebound" at any indicated dose; duration of antagonism of OMZ-induced analgesia, PO ([8]; PO, 42.64 μmol/kg): remained very constant for at least eight hours; duration of antagonism of OMZ-induced analgesia, SC ([8]; SC, Example XII 10.66 μmol/kg, OMZ 19 μmol/kg SC): antagonized the analgesia produced by OMZ for the full eight hours of testing; relative potency versus naltrexone, oral, OMZ antagonism ([8]; oral): not as potent as naltrexone when administered by the oral route; selectivity for site labeled by [^3 H]DAGO over site labeled by [3H]DADLE (mu-type opioid receptor [4]; [^3 H]DAGO vs [3H]DADLE): nine-fold more selective; fold more potent to inhibit specific [^3 H]DAGO binding (mu-type opioid receptor [4]; than compound of Example X or XI, or naltrexone): 3 fold |
| Oc1ccc2c3c1O[C@H]1C(=NOC4CCCCC4)CC[C@@]4(O)[C@@H](C2)N(CC2CC2)CC[C@]314 [Example XXV, 6-cyclohexyloximino-17-cyclopropylmethyl-4,5 α-epoxy-3,14-dihydroxymorphinan] | – | – | – | – | – | selectivity for delta type receptors [3]: possess selectivity for the delta type receptors; fold more potent at delta receptor [3]: 15 fold |
| Oc1ccc2c3c1O[C@H]1C(=NOC4CCCC4)CC[C@@]4(O)[C@@H](C2)N(CC2CC2)CC[C@]314 [Example XXVI, 6-cyclopentyloximino-17-cyclopropylmethyl-4,5 α-epoxy-3,14-dihydroxymorphinan] | – | – | – | – | – | selectivity for delta type receptors [3]: possess selectivity for the delta type receptors; fold more potent at delta receptor [3]: 30 fold |
| C=CCN1CC[C@]23c4c5ccc(O)c4O[C@H]2C(=NOc2ccccc2)CC[C@@]3(O)[C@H]1C5 [VIII, 6-Phenyloximino-17-allyl-4,5 α-epoxy-3, 14-dihydroxymorphinan] | – | – | – | – | displaced [3H] opiate binding as expected | – |
